Data on 31 variants can be found in the GPR68 mutational scans of Howard et al. (2025).

B1: GPR68, Q15743 (parent)
chain: MGNITADNSSMSCTIDHTIHQTLAPVVYVTVLVVGFPANCLSLYFGYLQIKARNELGVYLCNLTVADLFYICSLPFWLQYVLQHDNWSHGDLSCQVCGILLYENIYISVGFLCCISVDRYLAVAHPFRFHQFRTLKAAVGVSVVIWAKELLTSIYFLMHEEVIEDENQHRVCFEHYPIQAWQRAINYYRFLVGFLFPICLLLASYQGILRAVRRSHGTQKSRKDQIQRLVLSTVVIFLACFLPYHVLLLVRSVWEASCDFAKGVFNAYHFSLLLTSFNCVADPVLYCFVSETTHRDLARLRGACLAFLTCSRTGRAREAYPLGAPEASGKSGAQGEEPELLTKLHPAFQTPNSPGSGGFPTGRLA

Scores whose standard error is large were omitted. The source holds two more conditions with little spread; they are left out. Read del as a deletion of the residues named and ins as an insertion between two positions. For some of these results: How much ogerin was present is not stated here.

The variants in data set [1] derive from B1. In words: cAMP reporter score (Enrich2 score, wild type = 0); higher = more signal; HEK293T, FACS bins.
The variants in data set [2] derive from B1. Description: surface expression score (Enrich2 score, wild type = 0); higher = more signal; HEK293T, FACS bins.

Turning to L242R, the cAMP reporter score in data set [1] (pH 5.5) was -1.17; in data set [1] (pH 6), -1.08; in data set [1] (pH 6, modulator: ogerin), -1.33; in data set [1] (pH 6.5, modulator: ogerin), -1.17. Further, the surface expression score in data set [2] was -2.58.
Consider L242P, for which the cAMP reporter score in data set [1] (pH 5.5) is -1.65; in data set [1] (pH 6) it was -1.28; in data set [1] (pH 6, modulator: ogerin), -1.32; in data set [1] (pH 6.5, modulator: ogerin), -0.786. In addition, in data set [2], the surface expression score was -2.68.
On the same counts, the results for L242M are -0.07, 0.197, -0.117, -0.232 and 1.3.
On the same counts, the results for L242H are -0.635, -0.712, -0.656, -0.99 and -1.73.
The like results for L242G were, in that order, 1.31, -0.143, 1.52, 0.051 and 2.42.
In the case of L238W, the cAMP reporter score is -1.09 in data set [1] (pH 5.5); -1.7 in data set [1] (pH 6); -1.37 in data set [1] (pH 6, modulator: ogerin); -1.66 in data set [1] (pH 6.5, modulator: ogerin). Moreover, in data set [2], the surface expression score was -2.83.
For the variant L238V, the cAMP reporter score worked out at 1.32 in data set [1] (pH 5.5); 1.21 in data set [1] (pH 6, modulator: ogerin); 0.522 in data set [1] (pH 6.5, modulator: ogerin). The surface expression score in data set [2] came out at 2.48.
Take L238Y: the cAMP reporter score in data set [1] (pH 5.5) was -0.999; in data set [1] (pH 6), -0.837; in data set [1] (pH 6, modulator: ogerin), -1.74; in data set [1] (pH 6.5, modulator: ogerin) it was -1.57. In data set [2], the surface expression score was -1.5.
The like results for L238T were, in that order, 0.562, 0.038, 0.26, -0.463 and 0.032.
The like results for A239del were, in that order, -1.37, -1.35, -1.48, -0.478 and -0.01.
Regarding A239_C240del, the cAMP reporter score in data set [1] (pH 5.5) was -1.53; in data set [1] (pH 6, modulator: ogerin), -2.02; in data set [1] (pH 6.5, modulator: ogerin), -1.84.
With L238_C240del, the cAMP reporter score is -0.763 in data set [1] (pH 5.5); -2.43 in data set [1] (pH 6); -1.52 in data set [1] (pH 6.5, modulator: ogerin). In addition, the surface expression score in data set [2] is -1.82.
Take Y244_H245insGS: the cAMP reporter score in data set [1] (pH 5.5) was -1.72; in data set [1] (pH 6), -1.07; in data set [1] (pH 6, modulator: ogerin), -1.5; in data set [1] (pH 6.5, modulator: ogerin), -1.11. In addition, the surface expression score in data set [2] is -2.42.
Turning to L247I, the cAMP reporter score in data set [1] (pH 5.5) is 0.944; in data set [1] (pH 6) it was 0.174; in data set [1] (pH 6, modulator: ogerin), 0.067; in data set [1] (pH 6.5, modulator: ogerin), -0.034. In data set [2], the surface expression score came to 1.52.
As to L247M, the cAMP reporter score is 0.345 in data set [1] (pH 5.5); 1.19 in data set [1] (pH 6, modulator: ogerin); 2.05 in data set [1] (pH 6.5, modulator: ogerin). The surface expression score in data set [2] was found to be 0.828.
As to L247N, the cAMP reporter score was 0.044 in data set [1] (pH 5.5); -1.5 in data set [1] (pH 6); -0.46 in data set [1] (pH 6, modulator: ogerin); -0.714 in data set [1] (pH 6.5, modulator: ogerin). For the same variant, in data set [2], the surface expression score is -1.44.
On the same counts, the results for L247W are -1.03, -0.608, -0.733, -1.21 and -1.5.
The like results for L247C were, in that order, -0.67, 0.256, -0.308, -0.575 and -2.14.
The like results for L247R were, in that order, -2.35, -1.5, -2.15, -1.17 and -2.64.
As for L247T, the cAMP reporter score was found to be 0.637 in data set [1] (pH 5.5); 1.08 in data set [1] (pH 6); 0.168 in data set [1] (pH 6, modulator: ogerin); 0.35 in data set [1] (pH 6.5, modulator: ogerin). For the same variant, the surface expression score in data set [2] amounted to 0.753.
Turning to L247F, the cAMP reporter score in data set [1] (pH 5.5) worked out at 1.1; in data set [1] (pH 6), 1.14; in data set [1] (pH 6, modulator: ogerin), 1.49; in data set [1] (pH 6.5, modulator: ogerin), 0.786. Besides, the surface expression score in data set [2] is -0.299.
The like results for L247Q were, in that order, -0.938, -0.272, -0.245, -1.65 and -2.76.
The like results for L247A were, in that order, -0.072, 0.38, 0.476, 0.493 and -0.892.
On the same counts, the results for L247Y are -0.317, -1.64, -1, -1.76 and -1.79.
L247K: the cAMP reporter score is -2.23 in data set [1] (pH 5.5); -1.45 in data set [1] (pH 6); -2.08 in data set [1] (pH 6, modulator: ogerin); -1.19 in data set [1] (pH 6.5, modulator: ogerin). Besides, in data set [2], the surface expression score is -2.2.
On the same counts, the results for L247G are 0.065, -0.954, -0.334, -0.039 and -1.09.
Turning to L247V, the cAMP reporter score in data set [1] (pH 5.5) is -0.288; in data set [1] (pH 6, modulator: ogerin) it was 0.042; in data set [1] (pH 6.5, modulator: ogerin), -1.44. In data set [2], the surface expression score is -0.095.
Turning to L247D, the cAMP reporter score is -1.34 in data set [1] (pH 5.5); -1.53 in data set [1] (pH 6); -1.45 in data set [1] (pH 6, modulator: ogerin); -0.86 in data set [1] (pH 6.5, modulator: ogerin). Also, the surface expression score in data set [2] was -1.9.
For the variant L247P, the cAMP reporter score is -1.56 in data set [1] (pH 5.5); -1.02 in data set [1] (pH 6); -1.78 in data set [1] (pH 6, modulator: ogerin); -1.34 in data set [1] (pH 6.5, modulator: ogerin). The surface expression score in data set [2] was -2.81.
On the same counts, the results for L247H are -0.491, -0.79, -0.584, -0.403 and -2.38.
Consider L247S, for which the cAMP reporter score in data set [1] (pH 5.5) is -0.298; in data set [1] (pH 6), -1.3; in data set [1] (pH 6.5, modulator: ogerin), 4.65. In data set [2], the surface expression score is -0.829.
